Results taken from the supplement of paper PMC10369915.
The list shows a part of the results. Cut-off read from the data, not from the text of the source: active = 3.2 or more and inactive = the rest. Only a few entries rise above the background.

biological target: SHP2 C-SH2 domain E139D; assay: enrichment score (SH2-bound / input frequency) (ratio); bacterial display of known human phosphotyrosine sites (pTyr-Var adds point mutants) read by sequencing; higher = stronger binding; tyrosines were phosphorylated by kinases first; conditions: peptide library: pTyr-Var
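Note: displayed peptides selected on beads carrying the immobilized SH2 domain, with library peptides lacking any tyrosine serving as negative controls.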

Enrichment score, inactive:
CEHRGHLYLAI [TEK_Y897_Y897H] 0.768
LQRCKYSHMEP [TEX45_Y434] 1.56
PPPELYFVKVD [TERT_Y707] 1.72
RRNTPYSQTMK [TET2_Y819_S817T] 0.353
YLEEEYVKAVG [TF_Y674_G671E] 0.689
TDDMRYPMKSE [TGDS_Y302_N298D] 0.528
SHMVNYQPYRK [TEX37_Y25_D24N] 0.639
VNFQPYRKHKF [TEX37_Y28_D24N_YF] 0.29
CEHRGCLFLAI [TEK_Y897_Y897C_YF] 1.68
NREGVYTVSAP [TGFBI_Y537_F540S] 0.623
HRGYLYLAIEY [TEK_Y899] 0.34
DKMEAYNIDET [TEKT4_Y210] 0.557
HLQQSYLPRGT [TEX45_Y396] 1.05
NTFEKYLGEEF [TF_Y669_YF] 1.3
SHMVDYQPFRK [TEX37_Y25_YF] 0.866
HDRNTYEKFLG [TF_Y666_YF] 0.769
TDVSLYPSGGT [TENM4_Y399] 0.502
CEHRGYLFLAI [TEK_Y897_YF] 0.773

biological target: SHP2 C-SH2 domain wild-type; assay: as above; conditions: peptide library: pTyr-Var

Enrichment score, inactive:
CEHRGHLYLAI [TEK_Y897_Y897H] 0.757
LQRCKYSHMEP [TEX45_Y434] 1.37
PPPELYFVKVD [TERT_Y707] 0.99
RRNTPYSQTMK [TET2_Y819_S817T] 0.276
YLEEEYVKAVG [TF_Y674_G671E] 0.778
TDDMRYPMKSE [TGDS_Y302_N298D] 0.44
SHMVNYQPYRK [TEX37_Y25_D24N] 0.508
VNFQPYRKHKF [TEX37_Y28_D24N_YF] 0.288
CEHRGCLFLAI [TEK_Y897_Y897C_YF] 1.71
NREGVYTVSAP [TGFBI_Y537_F540S] 0.596
HRGYLYLAIEY [TEK_Y899] 0.803
DKMEAYNIDET [TEKT4_Y210] 0.412
HLQQSYLPRGT [TEX45_Y396] 0.784
NTFEKYLGEEF [TF_Y669_YF] 1.21
SHMVDYQPFRK [TEX37_Y25_YF] 0.865
HDRNTYEKFLG [TF_Y666_YF] 0.883
TDVSLYPSGGT [TENM4_Y399] 0.299
CEHRGYLFLAI [TEK_Y897_YF] 0.919

biological target: SHP2 N-SH2 domain L43F; assay: as above; conditions: peptide library: pTyr-Var

Enrichment score, inactive:
CEHRGHLYLAI [TEK_Y897_Y897H] 0.53
LQRCKYSHMEP [TEX45_Y434] 1.27
PPPELYFVKVD [TERT_Y707] 1.08
RRNTPYSQTMK [TET2_Y819_S817T] 0.415
YLEEEYVKAVG [TF_Y674_G671E] 0.831
TDDMRYPMKSE [TGDS_Y302_N298D] 0.539
SHMVNYQPYRK [TEX37_Y25_D24N] 0.539
VNFQPYRKHKF [TEX37_Y28_D24N_YF] 0.388
CEHRGCLFLAI [TEK_Y897_Y897C_YF] 1.78
NREGVYTVSAP [TGFBI_Y537_F540S] 0.652
HRGYLYLAIEY [TEK_Y899] 0.361
DKMEAYNIDET [TEKT4_Y210] 0.407
HLQQSYLPRGT [TEX45_Y396] 0.727
NTFEKYLGEEF [TF_Y669_YF] 1.01
SHMVDYQPFRK [TEX37_Y25_YF] 0.736
HDRNTYEKFLG [TF_Y666_YF] 0.747
TDVSLYPSGGT [TENM4_Y399] 0.421
CEHRGYLFLAI [TEK_Y897_YF] 0.741

biological target: SHP2 N-SH2 domain T42A; assay: as above; conditions: peptide library: pTyr-Var

Enrichment score, inactive:
CEHRGHLYLAI [TEK_Y897_Y897H] 0.725
LQRCKYSHMEP [TEX45_Y434] 1.16
PPPELYFVKVD [TERT_Y707] 1.43
RRNTPYSQTMK [TET2_Y819_S817T] 0.391
YLEEEYVKAVG [TF_Y674_G671E] 0.988
TDDMRYPMKSE [TGDS_Y302_N298D] 0.602
SHMVNYQPYRK [TEX37_Y25_D24N] 0.448
VNFQPYRKHKF [TEX37_Y28_D24N_YF] 0.4
CEHRGCLFLAI [TEK_Y897_Y897C_YF] 1.32
NREGVYTVSAP [TGFBI_Y537_F540S] 0.601
HRGYLYLAIEY [TEK_Y899] 0.329
DKMEAYNIDET [TEKT4_Y210] 0.44
HLQQSYLPRGT [TEX45_Y396] 0.851
NTFEKYLGEEF [TF_Y669_YF] 1.33
SHMVDYQPFRK [TEX37_Y25_YF] 0.687
HDRNTYEKFLG [TF_Y666_YF] 0.79
TDVSLYPSGGT [TENM4_Y399] 0.463
CEHRGYLFLAI [TEK_Y897_YF] 0.707

biological target: SHP2 N-SH2 domain T52S; assay: as above; conditions: peptide library: pTyr-Var

Enrichment score, inactive:
CEHRGHLYLAI [TEK_Y897_Y897H] 0.545
LQRCKYSHMEP [TEX45_Y434] 0.959
PPPELYFVKVD [TERT_Y707] 1.27
RRNTPYSQTMK [TET2_Y819_S817T] 0.421
YLEEEYVKAVG [TF_Y674_G671E] 0.768
TDDMRYPMKSE [TGDS_Y302_N298D] 0.528
SHMVNYQPYRK [TEX37_Y25_D24N] 0.712
VNFQPYRKHKF [TEX37_Y28_D24N_YF] 0.34
CEHRGCLFLAI [TEK_Y897_Y897C_YF] 1.43
NREGVYTVSAP [TGFBI_Y537_F540S] 0.766
HRGYLYLAIEY [TEK_Y899] 0.476
DKMEAYNIDET [TEKT4_Y210] 0.581
HLQQSYLPRGT [TEX45_Y396] 1.17
NTFEKYLGEEF [TF_Y669_YF] 1.1
SHMVDYQPFRK [TEX37_Y25_YF] 0.903
HDRNTYEKFLG [TF_Y666_YF] 0.596
TDVSLYPSGGT [TENM4_Y399] 0.666
CEHRGYLFLAI [TEK_Y897_YF] 0.559

biological target: SHP2 N-SH2 domain wild-type; assay: as above; conditions: peptide library: pTyr-Var

Enrichment score, inactive:
CEHRGHLYLAI [TEK_Y897_Y897H] 0.853
LQRCKYSHMEP [TEX45_Y434] 0.875
PPPELYFVKVD [TERT_Y707] 1.04
RRNTPYSQTMK [TET2_Y819_S817T] 0.359
YLEEEYVKAVG [TF_Y674_G671E] 1.12
TDDMRYPMKSE [TGDS_Y302_N298D] 0.578
SHMVNYQPYRK [TEX37_Y25_D24N] 0.403
VNFQPYRKHKF [TEX37_Y28_D24N_YF] 0.363
CEHRGCLFLAI [TEK_Y897_Y897C_YF] 1.76
NREGVYTVSAP [TGFBI_Y537_F540S] 0.678
HRGYLYLAIEY [TEK_Y899] 0.548
DKMEAYNIDET [TEKT4_Y210] 0.819
HLQQSYLPRGT [TEX45_Y396] 0.77
NTFEKYLGEEF [TF_Y669_YF] 1.16
SHMVDYQPFRK [TEX37_Y25_YF] 1.09
HDRNTYEKFLG [TF_Y666_YF] 0.845
TDVSLYPSGGT [TENM4_Y399] 0.591
CEHRGYLFLAI [TEK_Y897_YF] 0.845
